This passage reports koff, kon and Kd results from patent publication US20260242476A1 (BINACEA PHARMA, published 2026).

Changes are numbered by the printed parent chain.

B1: anti-PD-1 VHH antibody clone 3A6 (bivalent VHH-Fc) (Fc fusion)
chain: QVQLQESGGGLVQAGGSLRLSCTASGRTFSNYAMGWIRQVSGKELEFVAAISSSGVLRNYADSVKGRFTISRDNAKNTVYLQMNSLKPEDTALYSCAENRRYYGDWRDLNYDSRGQGTQVTVSS[human IgG1 Fc left out]
notes: Group 1 llama VHH fused to human IgG1 hinge-Fc; bivalent; also called Clone 3A6 VHH
B2: humanized anti-PD-1 VHH antibody clone 3A6-hu03 (Fc fusion)
chain: B1 chain with Q1E
notes: not restated for the humanized clones
B3: humanized anti-PD-1 VHH antibody clone 3A6-hu01 (Fc fusion)
chain: B1 chain with Q1E, A14P, T23S, A75S, K87R, P88A, L93V, S95Y, R114W
notes: also called 3A6-01
B4: humanized anti-PD-1 VHH antibody clone 3A6-hu02 (Fc fusion)
chain: B1 chain with Q1E, T23S, I37V, A75S, L93V, S95Y, R114W
notes: as for B2
B5: anti-PD-1 VHH antibody clone 3D5 (bivalent VHH-Fc) (Fc fusion)
heavy: QVQLQESGGGLVQAGGSLTLSCAASGGTFNYYAMGWFRQAPGLEREFVAAISGSGGSAGYSESAKDRFTISRDNAKKTVYLQMNSLKPEDTAVYYCAADRPNSGSYIPTQRYEYDYWGQGTQVTVSS[human IgG1 Fc left out]
notes: Group 2 llama VHH fused to human IgG1 hinge-Fc; bivalent; also called Clone 3D5 VHH
B6: humanized anti-PD-1 VHH antibody clone 3D5-hu02 (Fc fusion)
chain: B5 heavy with Q1E, L43K
notes: as for B2
B7: humanized anti-PD-1 VHH antibody clone 3D5-hu01 (Fc fusion)
chain: B5 heavy with Q1E
notes: as for B2
B8: humanized anti-PD-1 VHH antibody clone 3D5-hu03 (Fc fusion)
chain: B5 heavy with Q1E, A14P, F37V, L43K, A75S, K77N, K87R, P88A
notes: as for B2
B9: humanized anti-PD-1 VHH antibody clone 3D5-hu04 (Fc fusion)
chain: B5 heavy with Q1E, F37V, L43K, A75S, K77N
notes: as for B2
B10: anti-PD-1 VHH antibody clone 3C4 (bivalent VHH-Fc) (Fc fusion)
heavy: B5 heavy with Q3K, Q5E, K76Q, R100I, Q110R, Q119R
notes: Group 2 llama VHH fused to human IgG1 hinge-Fc; bivalent; also called Clone 3C4 VHH
B11: anti-PD-1 VHH antibody clone 3E10 (bivalent VHH-Fc) (Fc fusion)
chain: B5 heavy with Q5V, Q110R, R111I, Q119R, Q122L
notes: Group 2 llama VHH fused to human IgG1 hinge-Fc; bivalent; also called Clone 3E10 VHH
B12: anti-PD-1 VHH antibody clone 3H9 (bivalent VHH-Fc) (Fc fusion)
chain: B1 chain with Q5V, E98A, Q119L
notes: Group 1 llama VHH fused to human IgG1 hinge-Fc; bivalent; also called Clone 3H9 VHH
B13: anti-PD-1 VHH antibody clone 4C10 (bivalent VHH-Fc) (Fc fusion)
chain: B1 chain with Q3K, Q5E, E98A, N99I, Q119L
notes: Group 1 llama VHH fused to human IgG1 hinge-Fc; bivalent; also called Clone 4C10 VHH
B14: anti-PD-1 VHH antibody clone 4G7 (bivalent VHH-Fc) (Fc fusion)
chain: B1 chain with Q3K, Q5E, E98A, Q119L
notes: Group 1 llama VHH fused at its C-terminus to human IgG1 hinge-Fc; bivalent heavy-chain-only format, expressed in ExpiCHO; also called Clone 4G7 VHH
B15: humanized anti-PD-1 VHH antibody clone 3H9-hu01 (Fc fusion)
chain: B1 chain with Q1E, Q5V, E98A, Q119L
notes: not restated for the humanized clones; also called 3H9-01

The first assay concerns the target T1, recombinant human PD-1 ECD with His tag (Acro Biosystems) (human, UniProt Q15116 fragment).
T1 construct: also called human PD-1 ECD-His tag; hu-PD-1 ECD His tag; not shown: His tag
Nature of the assay: BLI (Gator), human PD-1 ECD His-tag antigen.
On to B1, for which the dissociation rate constant (koff) worked out at 0.00693 s⁻¹ and the kon was 212000 M⁻¹ s⁻¹.

Regarding B2, the dissociation constant (Kd) is 69.6 nM, the koff was found to be 0.0185 s⁻¹ and the on-rate (kon) turned out to be 266000 M⁻¹ s⁻¹.

Take B3: the equilibrium dissociation constant (Kd) is 21.6 nM, the koff came out at 0.00677 s⁻¹ and the kon is 313000 M⁻¹ s⁻¹.

B4: the Kd worked out at 52.2 nM, the koff turned out to be 0.00571 s⁻¹ and the kon turned out to be 109000 M⁻¹ s⁻¹.

For the next assay, the target named is T2, human PD-1 ECD antigen with human Fc tag on C-terminus (Acro Biosystems) (human, UniProt Q15116 fragment).
T2 construct: Bought; also called human PD-1 ECD-Fc; human PD-1 ECD with Fc-tag; not shown: human Fc tag at the C-terminus
Nature of the assay: BLI (Gator), human PD-1 ECD Fc-tag antigen.
Molecule B5 yielded a Kd of 2.56 nM, a dissociation rate constant (koff) of 0.000195 s⁻¹ and a kon of 76300 M⁻¹ s⁻¹.

For the molecule B6, the dissociation constant (Kd) came out at 3.81 nM, the koff was 0.000266 s⁻¹ and the association rate constant (kon) is 69800 M⁻¹ s⁻¹.

Consider B7, for which the equilibrium dissociation constant (Kd) turned out to be 3.02 nM, the koff came out at 0.000236 s⁻¹ and the on-rate constant (kon) is 78200 M⁻¹ s⁻¹.

B8 gave a Kd of 6.48 nM, a koff of 0.000378 s⁻¹ and a kon of 58300 M⁻¹ s⁻¹.

With B9, binding was put at a Kd of 7.4 nM, the dissociation rate constant (koff) was found to be 0.000454 s⁻¹ and the association rate constant (kon) is 61300 M⁻¹ s⁻¹.

The next assay concerns the target T3, recombinant cynomolgus monkey PD-1 ECD fused at its C-terminus to a human Fc tag (Acro Biosystems) (cynomolgus monkey).
T3 construct: Bought; also called cyno PD-1 ECD Fc-tag; cyno PD-1 ECD-Fc
Kind of assay: BLI (Gator Prime), cyno PD-1 ECD-Fc antigen.
For the molecule B5, the Kd worked out at 1.85 nM, the off-rate (koff) came out at 0.000198 s⁻¹ and the on-rate (kon) worked out at 107000 M⁻¹ s⁻¹.

As to B10, the dissociation constant (Kd) amounted to 1.16 nM, the koff was 0.000122 s⁻¹ and the on-rate constant (kon) worked out at 105000 M⁻¹ s⁻¹.

As for B11, the Kd was 2.61 nM, the off-rate (koff) was 0.000245 s⁻¹ and the kon amounted to 93800 M⁻¹ s⁻¹.

With B1, the dissociation constant Kd worked out at 1.3 nM, the off-rate constant (koff) was 8.97e-05 s⁻¹ and the on-rate (kon) was 68900 M⁻¹ s⁻¹.

As to B12, the dissociation constant (Kd) was 1.12 nM, the koff turned out to be 0.000168 s⁻¹ and the kon was 151000 M⁻¹ s⁻¹.

Consider B13, for which the equilibrium dissociation constant (Kd) is 2.21 nM, the off-rate constant (koff) came to 0.000257 s⁻¹ and the kon came out at 116000 M⁻¹ s⁻¹.

B14: the Kd worked out at 0.749 nM, the off-rate (koff) came to 0.00012 s⁻¹ and the kon was 160000 M⁻¹ s⁻¹.

In another assay the target is T2, human PD-1 ECD antigen with human Fc …. Kind of assay: BLI (Gator), human PD-1 ECD Fc-tag antigen. This is another data set of the same source.
In the case of B1, the affinity, expressed as Kd, was 1.81 nM; the koff was 0.000254 s⁻¹; the kon was determined as 140000 M⁻¹ s⁻¹.

With B3, binding was put at a Kd of 1.63 nM, the koff is 0.000179 s⁻¹ and the kon turned out to be 109000 M⁻¹ s⁻¹.

For B15, binding was put at a Kd of 1.87 nM, the koff worked out at 0.000249 s⁻¹ and the kon was 133000 M⁻¹ s⁻¹.

The next assay addresses T1, recombinant human PD-1 ECD with His tag …. Kind of assay: BLI (Gator Prime), VHH-Fc captured on anti-human IgG Fc probe, 1:1 fit.
For the molecule B5, the dissociation constant Kd worked out at 23.9 nM, the dissociation rate constant (koff) came to 0.00186 s⁻¹ and the kon came to 77800 M⁻¹ s⁻¹.

Consider B10, for which the dissociation constant Kd was 33.5 nM, the koff is 0.00329 s⁻¹ and the kon came out at 98100 M⁻¹ s⁻¹.

Take B11: the equilibrium dissociation constant (Kd) turned out to be 59.6 nM, the koff amounted to 0.00446 s⁻¹ and the kon came to 74800 M⁻¹ s⁻¹.

Take B1: the Kd amounted to 32.8 nM, the koff is 0.00693 s⁻¹ and the association rate constant (kon) came out at 212000 M⁻¹ s⁻¹.

For the molecule B13, the Kd worked out at 39.1 nM, the koff came to 0.00969 s⁻¹ and the kon was found to be 248000 M⁻¹ s⁻¹.

For B14, the dissociation constant Kd is 35.3 nM, the koff is 0.00712 s⁻¹ and the on-rate (kon) was 202000 M⁻¹ s⁻¹.

The koff is the first-order rate constant of dissociation. As usually defined, the kon is the second-order rate constant of association. By Kd is commonly meant the concentration at which binding is half-saturated.
